Article PMC4807287
These are yes or no findings as the source states them, for the method shown. In cells and extracts the contact can be indirect. Some binding calls cover weakened binding; strength is not graded here.

By UniProt entry, the sequences of proteins in these tests, tags left out.
UniProt Q9Y5S8: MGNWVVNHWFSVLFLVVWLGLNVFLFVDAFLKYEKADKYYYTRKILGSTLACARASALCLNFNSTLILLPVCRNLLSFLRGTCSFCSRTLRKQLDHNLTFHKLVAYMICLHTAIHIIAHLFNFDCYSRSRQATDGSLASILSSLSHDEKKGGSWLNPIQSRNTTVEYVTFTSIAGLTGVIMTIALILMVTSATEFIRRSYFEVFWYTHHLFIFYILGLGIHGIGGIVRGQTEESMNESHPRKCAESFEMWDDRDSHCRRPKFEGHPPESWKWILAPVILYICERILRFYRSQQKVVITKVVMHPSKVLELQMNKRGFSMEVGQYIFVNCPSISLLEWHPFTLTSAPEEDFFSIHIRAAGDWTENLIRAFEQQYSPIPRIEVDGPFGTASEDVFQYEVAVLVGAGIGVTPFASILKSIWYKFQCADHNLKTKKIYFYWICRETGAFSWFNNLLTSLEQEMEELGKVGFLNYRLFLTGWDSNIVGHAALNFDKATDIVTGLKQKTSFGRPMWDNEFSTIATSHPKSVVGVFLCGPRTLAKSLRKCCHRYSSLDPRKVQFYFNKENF

Assays:
[1] = molecular target: T1, Calnexin, endogenous in HEK293 cells (human (endogenous in HEK293)) (UniProt P27824); assay: co-IP; HEK293 cells transiently transfected with human NOX1, NOX2, NOX4 or NOX5; IP with anti-CANX; Western blot for the NOX proteins
T1 sequence: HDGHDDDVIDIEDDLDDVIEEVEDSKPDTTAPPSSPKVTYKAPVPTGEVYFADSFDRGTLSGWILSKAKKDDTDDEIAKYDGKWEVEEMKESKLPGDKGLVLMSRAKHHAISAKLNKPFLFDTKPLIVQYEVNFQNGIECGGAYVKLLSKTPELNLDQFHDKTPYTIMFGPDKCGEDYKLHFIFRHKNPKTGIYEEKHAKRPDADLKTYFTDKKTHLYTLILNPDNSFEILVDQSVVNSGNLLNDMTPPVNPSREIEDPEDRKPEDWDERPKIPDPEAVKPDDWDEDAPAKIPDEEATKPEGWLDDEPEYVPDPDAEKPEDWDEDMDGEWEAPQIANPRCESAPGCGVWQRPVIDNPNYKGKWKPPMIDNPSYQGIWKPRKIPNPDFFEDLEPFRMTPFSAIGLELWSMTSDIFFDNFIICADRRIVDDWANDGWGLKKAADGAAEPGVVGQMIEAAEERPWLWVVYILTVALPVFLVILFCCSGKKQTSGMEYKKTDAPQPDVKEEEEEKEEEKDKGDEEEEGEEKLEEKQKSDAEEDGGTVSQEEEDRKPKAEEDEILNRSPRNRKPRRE

[2] = molecular target: T1, Calnexin, endogenous in HEK293 cells (human (endogenous in HEK293)); assay: co-IP; IP with anti-CANX or anti-HSPA5 antibody and Protein A/G-Sepharose from HEK293 (Ctl) and stably NOX4-overexpressing HEK293 cells lysed in Tris/HCl pH 7.5 with 1% Triton or digitonin; Western blot for NOX4
[3] = molecular target: T2, NOX4, endogenous in murine podocytes and mouse embryonic fibroblasts (mouse (endogenous in podocytes and MEFs)) (UniProt Q9JHI8); assay: proximity ligation; Duolink PLA on formaldehyde-fixed, Triton-permeabilised cells with rabbit monoclonal anti-NOX4 and anti-CANX (sc-6465) antibodies; controls were the CANX antibody blocking peptide, omission of the NOX4 antibody, and Nox4-/- or Canx-/- cells; done in NOX4-HEK293 cells, mouse podocytes and MEFs
T2 sequence: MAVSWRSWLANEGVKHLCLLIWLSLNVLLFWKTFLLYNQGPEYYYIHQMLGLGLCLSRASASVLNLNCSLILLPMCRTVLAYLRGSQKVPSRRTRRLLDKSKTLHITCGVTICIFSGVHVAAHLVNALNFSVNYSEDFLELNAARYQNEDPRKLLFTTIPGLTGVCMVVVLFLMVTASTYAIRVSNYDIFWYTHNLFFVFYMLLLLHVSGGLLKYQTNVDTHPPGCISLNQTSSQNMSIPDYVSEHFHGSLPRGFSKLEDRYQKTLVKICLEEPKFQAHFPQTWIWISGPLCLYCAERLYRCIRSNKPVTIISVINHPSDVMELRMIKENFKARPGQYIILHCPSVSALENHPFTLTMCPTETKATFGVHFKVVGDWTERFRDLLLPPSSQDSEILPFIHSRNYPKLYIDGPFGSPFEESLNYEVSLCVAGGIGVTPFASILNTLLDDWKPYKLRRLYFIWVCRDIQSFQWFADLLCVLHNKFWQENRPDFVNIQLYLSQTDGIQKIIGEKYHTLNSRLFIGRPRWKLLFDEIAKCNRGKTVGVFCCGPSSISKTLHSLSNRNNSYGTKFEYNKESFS

Q: With “NOX1 (human), transiently overexpressed in HEK293 cells (from UniProt Q9Y5S8 1-564) (enzyme)” as the molecule, how does the binding [1] read?
A: Its binding is “no binding”.

B1: NADPH oxidase 4 (human NOX4), overexpressed in HEK293 cells (enzyme, UniProt Q9NPH5 1-578)
chain: MAVSWRSWLANEGVKHLCLFIWLSMNVLLFWKTFLLYNQGPEYHYLHQMLGLGLCLSRASASVLNLNCSLILLPMCRTLLAYLRGSQKVPSRRTRRLLDKSRTFHITCGVTICIFSGVHVAAHLVNALNFSVNYSEDFVELNAARYRDEDPRKLLFTTVPGLTGVCMVVVLFLMITASTYAIRVSNYDIFWYTHNLFFVFYMLLTLHVSGGLLKYQTNLDTHPPGCISLNRTSSQNISLPEYFSEHFHEPFPEGFSKPAEFTQHKFVKICMEEPRFQANFPQTWLWISGPLCLYCAERLYRYIRSNKPVTIISVMSHPSDVMEIRMVKENFKARPGQYITLHCPSVSALENHPFTLTMCPTETKATFGVHLKIVGDWTERFRDLLLPPSSQDSEILPFIQSRNYPKLYIDGPFGSPFEESLNYEVSLCVAGGIGVTPFASILNTLLDDWKPYKLRRLYFIWVCRDIQSFRWFADLLCMLHNKFWQENRPDYVNIQLYLSQTDGIQKIIGEKYHALNSRLFIGRPRWKLLFDEIAKYNRGKTVGVFCCGPNSLSKTLHKLSNQNNSYGTRFEYNKESFS
Q: Which results are given for B1?
A: binding [2]: binds; binding [1]: binds

B2: Calnexin, endogenous in murine podocytes and mouse embryonic fibroblasts (protein, UniProt P35564 21-591)
chain: HDGHDDDAIDIEDDLDDVIEEVEDSKSKSDASTPPSPKVTYKAPVPTGEVYFADSFDRGSLSGWILSKAKKDDTDDEIAKYDGKWEVDEMKETKLPGDKGLVLMSRAKHHAISAKLNKPFLFDTKPLIVQYEVNFQNGIECGGAYVKLLSKTAELSLDQFHDKTPYTIMFGPDKCGEDYKLHFIFRHKNPKTGVYEEKHAKRPDADLKTYFTDKKTHLYTLILNPDNSFEILVDQSVVNSGNLLNDMTPPVNPSREIEDPEDRKPEDWDERPKIADPDAVKPDDWDEDAPSKIPDEEATKPEGWLDDEPEYIPDPDAEKPEDWDEDMDGEWEAPQIANPKCESAPGCGVWQRPMIDNPNYKGKWKPPMIDNPNYQGIWKPRKIPNPDFFEDLEPFKMTPFSAIGLELWSMTSDIFFDNFIISGDRRVVDDWANDGWGLKKAADGAAEPGVVLQMLEAAEERPWLWVVYILTVALPVFLVILFCCSGKKQSNAMEYKKTDAPQPDVKDEEGKEEEKNKRDEEEEEEKLEEKQKSDAEEDGVTGSQDEEDSKPKAEEDEILNRSPRNRKPRRE
Q: Which binding [3] does the source give for B2 here?
A: Its binding is “binds”.

B3: NOX2 (human), transiently overexpressed in HEK293 cells (enzyme, UniProt P04839 1-570)
chain: MGNWAVNEGLSIFVILVWLGLNVFLFVWYYRVYDIPPKFFYTRKLLGSALALARAPAACLNFNCMLILLPVCRNLLSFLRGSSACCSTRVRRQLDRNLTFHKMVAWMIALHSAIHTIAHLFNVEWCVNARVNNSDPYSVALSELGDRQNESYLNFARKRIKNPEGGLYLAVTLLAGITGVVITLCLILIITSSTKTIRRSYFEVFWYTHHLFVIFFIGLAIHGAERIVRGQTAESLAVHNITVCEQKISEWGKIKECPIPQFAGNPPMTWKWIVGPMFLYLCERLVRFWRSQQKVVITKVVTHPFKTIELQMKKKGFKMEVGQYIFVKCPKVSKLEWHPFTLTSAPEEDFFSIHIRIVGDWTEGLFNACGCDKQEFQDAWKLPKIAVDGPFGTASEDVFSYEVVMLVGAGIGVTPFASILKSVWYKYCNNATNLKLKKIYFYWLCRDTHAFEWFADLLQLLESQMQERNNAGFLSYNIYLTGWDESQANHFAVHHDEEKDVITGLKQKTLYGRPNWDNEFKTIASQHPNTRIGVFLCGPEALAETLSKQSISNSESGPRGVHFIFNKENF
Q: For B3, which binding [1] is on record?
A: The binding was “no binding”.

B4: NOX5 (human), transiently overexpressed in HEK293 cells (enzyme, UniProt Q96PH1 1-765)
chain: MNTSGDPAQTGPEGCRGTMSAEEDARWLRWVTQQFKTIAGEDGEISLQEFKAALHVKESFFAERFFALFDSDRSGTITLQELQEALTLLIHGSPMDKLKFLFQVYDIDVCARQGASAGTEWGAGAGPHWASSPLGTGSGSIDPDELRTVLQSCLRESAISLPDEKLDQLTLALFESADADGNGAITFEELRDELQRFPGVMENLTISAAHWLTAPAPRPRPRRPRQLTRAYWHNHRSQLFCLATYAGLHVLLFGLAASAHRDLGASVMVAKGCGQCLNFDCSFIAVLMLRRCLTWLRATWLAQVLPLDQNIQFHQLMGYVVVGLSLVHTVAHTVNFVLQAQAEASPFQFWELLLTTRPGIGWVHGSASPTGVALLLLLLLMFICSSSCIRRSGHFEVFYWTHLSYLLVWLLLIFHGPNFWKWLLVPGILFFLEKAIGLAVSRMAAVCIMEVNLLPSKVTHLLIKRPPFFHYRPGDYLYLNIPTIARYEWHPFTISSAPEQKDTIWLHIRSQGQWTNRLYESFKASDPLGRGSKRLSRSVTMRKSQRSSKGSEILLEKHKFCNIKCYIDGPYGTPTRRIFASEHAVLIGAGIGITPFASILQSIMYRHQKRKHTCPSCQHSWIEGVQDNMKLHKVDFIWINRDQRSFEWFVSLLTKLEMDQAEEAQYGRFLELHMYMTSALGKNDMKAIGLQMALDLLANKEKKDSITGLQTRTQPGRPDWSKVFQKVAAEKKGKVQVFFCGSPALAKVLKGHCEKFGFRFFQENF
Q: With B4 as the molecule, how does the binding [1] read?
A: Its binding is “no binding”.
